# Test results as given in the supplement of paper PMC8728848.
# The other results are listed elsewhere or left out.
# Tests used:
# Assay in all cases: glycan array binding signal (z-score within array); higher = stronger binding
# Details in all cases: glycan notation: IUPAC condensed, linker removed
# Gal(a1-4)GlcNAc = biological target: Gal(a1-4)GlcNAc
# Procedure, shortened: (§1)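 From the Consortium for Functional Glycomics database, 3228 arrays were curated, keeping only those whose protein sequence was available. Binding is given as a within-array Z-score averaged across arrays sharing a protein sequence and across linkers. Negative Z-scores can be read as non-binding.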
# Gal(a1-6)Glc = biological target: Gal(a1-6)Glc
# Procedure, shortened: as §1
# Gal(b1-2)Gal = biological target: Gal(b1-2)Gal
# Procedure, shortened: as §1
# Gal(b1-3)Gal = biological target: Gal(b1-3)Gal
# Procedure, shortened: as §1
# Gal(b1-3)GalNAc = biological target: Gal(b1-3)GalNAc
# Procedure, shortened: as §1
# [1] = biological target: Gal(b1-3)GalNAc(b1-3)Gal(a1-4)Gal(b1-4)Glc
# Procedure, shortened: as §1
# [2] = biological target: Gal(b1-3)GalNAc(b1-3)Gal(b1-4)Glc
# Procedure, shortened: as §1
# [3] = biological target: Gal(b1-3)GalNAc(b1-3)Gal(b1-4)GlcNAc
# Procedure, shortened: as §1
# [4] = biological target: Gal(b1-3)GalNAc(b1-4)Gal(b1-4)Glc
# Procedure, shortened: as §1
# [5] = biological target: Gal(b1-3)GalNAc(b1-4)[Neu5Ac(a2-3)]Gal(b1-4)Glc
# Procedure, shortened: as §1
# [6] = biological target: Gal(b1-3)[Fuc(a1-4)]GlcNAc
# Procedure, shortened: as §1
# [7] = biological target: Gal(b1-3)[Fuc(a1-4)]GlcNAc(b1-3)Gal(b1-4)GlcNAc
# Procedure, shortened: as §1
# [8] = biological target: Gal(b1-3)[Fuc(a1-4)]GlcNAc(b1-3)Gal(b1-4)[Fuc(a1-3)]GlcNAc
# Procedure, shortened: as §1
# [9] = biological target: Gal(b1-3)[GlcNAc(b1-6)]GalNAc
# Procedure, shortened: as §1
# [10] = biological target: Gal(b1-3)[GlcNAc(b1-6)]GlcNAc
# Procedure, shortened: as §1
# [11] = biological target: Gal(b1-3)[Neu5Ac(a2-6)]GalNAc
# Procedure, shortened: as §1
# [12] = biological target: Gal(b1-3)[Neu5Ac(a2-6)]GlcNAc
# Procedure, shortened: as §1
# [13] = biological target: Gal(b1-3)[Neu5Ac(a2-6)]GlcNAc(a1-4)Gal(b1-4)Glc
# Procedure, shortened: as §1
# [14] = biological target: Gal(b1-3)[Neu5Ac(b2-6)]GlcNAc
# Procedure, shortened: as §1
# [15] = biological target: Gal(b1-4)GalNAc(a1-3)[Fuc(a1-2)]Gal(b1-4)GlcNAc
# Procedure, shortened: as §1
# [16] = biological target: Gal(b1-4)GalNAc(b1-3)[Fuc(a1-2)]Gal(b1-4)GlcNAc
# Procedure, shortened: as §1
# Gal(b1-4)Glc = biological target: Gal(b1-4)Glc
# Procedure, shortened: as §1
# Gal(b1-4)Glc6S = biological target: Gal(b1-4)Glc6S
# Procedure, shortened: as §1
# Gal(b1-4)GlcNAc = biological target: Gal(b1-4)GlcNAc
# Procedure, shortened: as §1
# [17] = biological target: Gal(b1-4)GlcNAc(b1-2)Man(a1-3)[Gal(b1-4)GlcNAc(b1-2)Man(a1-6)]Man(b1-4)GlcNAc(b1-4)GlcNAc
# Procedure, shortened: as §1
# [18] = biological target: Gal(b1-4)GlcNAc(b1-3)Gal(b1-4)Glc
# Procedure, shortened: as §1
# [19] = biological target: Gal(b1-4)GlcNAc(b1-3)Gal(b1-4)GlcNAc
# Procedure, shortened: as §1
# [20] = biological target: Gal(b1-4)GlcNAc(b1-3)Gal(b1-4)GlcNAc(b1-3)Gal(b1-4)GlcNAc
# Procedure, shortened: as §1
# [21] = biological target: Gal(b1-4)GlcNAc(b1-3)Gal(b1-4)[Fuc(a1-3)]GlcNAc(b1-3)Gal(b1-4)[Fuc(a1-3)]GlcNAc
# Procedure, shortened: as §1
# [22] = biological target: Gal(b1-4)GlcNAc(b1-3)GalNAc
# Procedure, shortened: as §1
# [23] = biological target: Gal(b1-4)GlcNAc(b1-3)[Gal(b1-4)GlcNAc(b1-6)]GalNAc
# Procedure, shortened: as §1
# [24] = biological target: Gal(b1-4)GlcNAc(b1-6)GalNAc
# Procedure, shortened: as §1
# [25] = biological target: Gal(b1-4)GlcNAc(b1-6)[Gal(b1-3)]GalNAc
# Procedure, shortened: as §1
# [26] = biological target: Gal(b1-4)GlcNAc(b1-6)[Gal(b1-3)]GlcNAc
# Procedure, shortened: as §1
# Gal3S(b1-3)GalNAc = biological target: Gal3S(b1-3)GalNAc
# Procedure, shortened: as §1
# Gal3S(b1-3)GlcNAc = biological target: Gal3S(b1-3)GlcNAc
# Procedure, shortened: as §1
# [27] = biological target: Gal3S(b1-3)[Fuc(a1-4)]GlcNAc
# Procedure, shortened: as §1
# Gal3S(b1-4)Glc = biological target: Gal3S(b1-4)Glc
# Procedure, shortened: as §1
# Gal3S(b1-4)Glc6S = biological target: Gal3S(b1-4)Glc6S
# Procedure, shortened: as §1
# Gal3S(b1-4)GlcNAc = biological target: Gal3S(b1-4)GlcNAc
# Procedure, shortened: as §1
# Gal3S(b1-4)GlcNAc6S = biological target: Gal3S(b1-4)GlcNAc6S
# Procedure, shortened: as §1
# Gal3S6S(b1-4)GlcNAc = biological target: Gal3S6S(b1-4)GlcNAc
# Procedure, shortened: as §1
# Gal3S6S(b1-4)GlcNAc6S = biological target: Gal3S6S(b1-4)GlcNAc6S
# Procedure, shortened: as §1
# Gal4S(b1-4)GlcNAc = biological target: Gal4S(b1-4)GlcNAc
# Procedure, shortened: as §1
# Gal4S6S(b1-4)GlcNAc = biological target: Gal4S6S(b1-4)GlcNAc
# Procedure, shortened: as §1
binder,measurement,setting,value
CVNH3T (Magnaporthe grisea) (protein) GSHIGPYGNYAGNFSGSSRDICLDGARLRAECRRGDGGYSTSVIDLNRYLSNDNGHFRWVSGGGGGGGTATVTVQQGDTLRDIGRRFDCDFHEIARRNNIQNEDLIYPGQVLQVPTKGGSGGGAGNFWDSARDVRLVDGGKVLEAELRYSGGWNRSRIYLDEHIGNRNGELIHC,glycan array binding signal (z-score),Gal(a1-4)GlcNAc,-0.216
same,glycan array binding signal (z-score),Gal(a1-6)Glc,-0.224
same,glycan array binding signal (z-score),Gal(b1-2)Gal,-0.185
same,glycan array binding signal (z-score),Gal(b1-3)Gal,-0.056
same,glycan array binding signal (z-score),Gal(b1-3)GalNAc,-0.229
same,glycan array binding signal (z-score),[1],6.38
same,glycan array binding signal (z-score),[2],-0.203
same,glycan array binding signal (z-score),[3],-0.245
same,glycan array binding signal (z-score),[4],-0.231
same,glycan array binding signal (z-score),[5],0.243
same,glycan array binding signal (z-score),[6],-0.22
same,glycan array binding signal (z-score),[7],-0.168
same,glycan array binding signal (z-score),[8],-0.216
same,glycan array binding signal (z-score),[9],-0.228
same,glycan array binding signal (z-score),[10],-0.23
same,glycan array binding signal (z-score),[11],-0.227
same,glycan array binding signal (z-score),[12],-0.221
same,glycan array binding signal (z-score),[13],-0.225
same,glycan array binding signal (z-score),[14],-0.238
same,glycan array binding signal (z-score),[15],-0.218
same,glycan array binding signal (z-score),[16],-0.231
same,glycan array binding signal (z-score),Gal(b1-4)Glc,-0.11
same,glycan array binding signal (z-score),Gal(b1-4)Glc6S,-0.229
same,glycan array binding signal (z-score),Gal(b1-4)GlcNAc,-0.229
same,glycan array binding signal (z-score),[17],-0.235
same,glycan array binding signal (z-score),[18],-0.214
same,glycan array binding signal (z-score),[19],-0.234
same,glycan array binding signal (z-score),[20],-0.237
same,glycan array binding signal (z-score),[21],-0.223
same,glycan array binding signal (z-score),[22],-0.219
same,glycan array binding signal (z-score),[23],0.47
same,glycan array binding signal (z-score),[24],-0.239
same,glycan array binding signal (z-score),[25],-0.138
same,glycan array binding signal (z-score),[26],-0.23
same,glycan array binding signal (z-score),Gal3S(b1-3)GalNAc,-0.226
same,glycan array binding signal (z-score),Gal3S(b1-3)GlcNAc,-0.21
same,glycan array binding signal (z-score),[27],-0.213
same,glycan array binding signal (z-score),Gal3S(b1-4)Glc,-0.22
same,glycan array binding signal (z-score),Gal3S(b1-4)Glc6S,-0.194
same,glycan array binding signal (z-score),Gal3S(b1-4)GlcNAc,-0.223
same,glycan array binding signal (z-score),Gal3S(b1-4)GlcNAc6S,-0.222
same,glycan array binding signal (z-score),Gal3S6S(b1-4)GlcNAc,-0.16
same,glycan array binding signal (z-score),Gal3S6S(b1-4)GlcNAc6S,-0.229
same,glycan array binding signal (z-score),Gal4S(b1-4)GlcNAc,-0.224
same,glycan array binding signal (z-score),Gal4S6S(b1-4)GlcNAc,-0.207
